Data published in patent US20170281764A1 (JN BIOSCIENCES, published 2017).

Molecular target: T1, human TIGIT on cells (Jurkat-TIGIT cells; human T cells, NK cells and other blood cells) (human, UniProt Q495A1 22-244)
T1 sequence: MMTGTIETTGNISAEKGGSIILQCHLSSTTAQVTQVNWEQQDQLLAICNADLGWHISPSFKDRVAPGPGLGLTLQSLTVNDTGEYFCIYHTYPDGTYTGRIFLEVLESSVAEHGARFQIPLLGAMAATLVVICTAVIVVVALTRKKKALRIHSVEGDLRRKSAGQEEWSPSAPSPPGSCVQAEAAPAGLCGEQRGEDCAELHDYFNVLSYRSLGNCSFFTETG
Test: cell-based or functional assay

B1: HuTIG3-IgG1.AA (humanized IgG1/kappa form of TIG3, L234A/L235A) (antibody)
heavy: EVQLVESGGGLVQPGGSLRLSCAASGFAFSDYDMSWVRQAPGKGLEWVAYISDGGYNTYYPDTVKGRFTISRDNAKNSLYLQMNSLRAEDTAVYYCARQILLRYYFDYWGQGTTVTVSS[human IgG1 constant region with changes cut from this listing]
light: DIQMTQSPSSLSASVGDRVTITCKSSQSLLYSSNQKNYLAWYQQKPGKAPKLLIYWASTRESGVPSRFSGSGSGTDFTLTISSLQPEDFAVYYCQQYHSYPWTFGGGTKVEIKRTVAAPSVFIFPPSDEQLKSGTASVVCLLNNFYPREAKVQWKVDNALQSGNSQESVTEQDSKDSTYSLSSTLTLSKADYEKHKVYACEVTHQGLSSPVTKSFNRGEC
notes: Mature full chains; also called humanized TIG3
  increase of K562 target cell killing by purified NK cells, 10 µg/ml antibody, relative to 'No Antibody' or Rituxan: 19%
